Measurements as given in article PMC6919601, “Identification of Plasmodium dipeptidyl aminopeptidase allosteric inhibitors by high throughput screening” (PLoS ONE, 2019).
The campaign covered roughly 110,000 compounds. About 230 (0.21%) showed an effect of 50% or more. The list shows a part of the results.

Target: DPAP1 (Plasmodium falciparum, UniProt Q8IIJ9)
Assay: primary screen, percent inhibition; read by cleavage of a fluorogenic dipeptide substrate; higher = more effect of the substance
Design: species or system P. falciparum D10 trophozoite lysates; single well
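Further: 30 min substrate incubation versus DMSO and 10 µM JCP410 controls.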

Sequence of DPAP1 (Q8IIJ9 whole entry, looked up): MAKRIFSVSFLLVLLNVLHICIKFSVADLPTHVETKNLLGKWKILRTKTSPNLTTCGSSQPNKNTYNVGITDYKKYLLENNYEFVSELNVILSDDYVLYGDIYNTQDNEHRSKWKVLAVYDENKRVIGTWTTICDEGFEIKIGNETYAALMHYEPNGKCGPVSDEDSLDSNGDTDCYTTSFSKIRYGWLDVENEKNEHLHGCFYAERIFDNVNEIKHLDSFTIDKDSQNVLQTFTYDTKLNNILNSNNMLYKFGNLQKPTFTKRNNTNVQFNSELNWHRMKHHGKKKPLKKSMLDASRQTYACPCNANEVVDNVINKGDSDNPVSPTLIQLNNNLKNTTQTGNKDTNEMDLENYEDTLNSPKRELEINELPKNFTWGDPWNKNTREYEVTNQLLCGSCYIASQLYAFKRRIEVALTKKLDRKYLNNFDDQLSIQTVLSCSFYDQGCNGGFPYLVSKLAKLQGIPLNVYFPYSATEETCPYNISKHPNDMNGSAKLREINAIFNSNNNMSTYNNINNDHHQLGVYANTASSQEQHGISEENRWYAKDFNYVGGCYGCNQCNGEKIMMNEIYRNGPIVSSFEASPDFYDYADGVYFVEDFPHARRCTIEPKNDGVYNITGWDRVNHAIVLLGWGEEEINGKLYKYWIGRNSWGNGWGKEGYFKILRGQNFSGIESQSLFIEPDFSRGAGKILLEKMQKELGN

Row | SMILES | % Inhibition @ 10 uM [%]
1 | Cc1ccc(NS(=O)(=O)c2ccc(Cl)cc2)cc1O | -5.81
2 | COc1ccc(C(C)=O)cc1CN1CCCCC1 | -2.44
3 | CCN(CC)C(=O)/C(=C/c1cn(CC)c2ccccc12)NC(=O)c1ccccc1OC | -1.74
4 | CC(C)C[C@H](NC(=O)[C@H]1CCCN1C#N)C(=O)OCc1ccccc1 | 0.744
5 | COc1ccc(-c2cn3c(n2)sc2cc(C(=O)N4CCN(c5ncccn5)CC4)ccc23)cc1 | 7.87
6 | CC1CC(C)CN(C(=O)C2CCCN(S(=O)(=O)c3c[nH]cn3)C2)C1 (stereo not drawn) | 1.26
7 | Cc1ccc2oc(-c3ccco3)c(O)c(=O)c2c1 | 0.0539
8 | Cn1c(=O)c2nc(N3CCCCCC3)[nH]c2n(C)c1=O | 0.248
9 | CCOC(=O)C1CCN(Cc2cccc(F)c2)CC1 | 4.66
10 | O=C(Nc1ccccc1)c1ccc(Br)cc1 | -4.11
11 | O=C(CN1N=C(c2ccccc2)CCC1=O)NCCC1=CCCCC1 | 3.79
12 | COc1nc(N2C(C)CCCC2C)nc(N2C(C)CCCC2C)n1 (stereo not drawn) | -0.693
13 | O=C(Cn1ncn2nc(-c3cccs3)cc2c1=O)NCCCN1CCC(Cc2ccccc2)CC1 | 2.27
14 | CCSCCO/C(O)=C1\C(C)=NC2=C(C(=O)CC(c3ccccc3OC)C2)C1c1ccsc1 (stereo not drawn) | -2.98
15 | O=C1CCC(=O)N1CCc1c[nH]c2ccc(OCc3ccccc3)cc12 | -2.08
16 | Cc1ccc(S(=O)(=O)NC2=NC(=O)/C(=C/c3ccccc3)S2)cc1 | 1.91
17 | CCOC(=O)c1ccc(CNCc2ccc(C)cc2)cc1 | 9.04
18 | Cc1cc(C)n2nc(SC(C)C(=O)NC3CCCCCCC3)nc2n1 (stereo not drawn) | 1.16
19 | COc1ccc(NC(=O)C2=C(C)Nc3nc(CCCO)nn3C2c2ccc(Cl)cc2)cc1 (stereo not drawn) | 13.2
20 | CCCN1C(=O)c2[nH]nc(-c3ccccc3)c2C1c1cccnc1 (stereo not drawn) | -1.07
21 | c1ccc2c(c1)CCN(c1nc3ccccc3n3cnnc13)C2 | 26.6

Row | SMILES | % Inhibition @ 10 uM [%]
22 | CN1CCN(Cc2ccc(-c3ccccc3)cc2)CC1 | 2.47
23 | Cc1ccc(S(=O)(=O)Nc2ccc(NC(=O)c3ccc(F)cc3)cc2)cc1 | -3.26
24 | CCOc1ccc(S(=O)(=O)NC(C)(C)C)cc1C#N | 1.84
25 | O=C(O)c1ccccc1C(=O)Nc1cccc([N+](=O)[O-])c1 | -4.02
26 | O=C(Nc1ccc(O)cc1)c1cc2ccccc2c(=O)s1 | 6.18
27 | COCCCn1c(=O)c2sccc2n2c(CCCC(=O)NCc3ccc(OC)cc3)nnc12 | -4.46
28 | Cc1ccc(OCc2nc(-c3ccccn3)no2)c(Br)c1 | -3.39
29 | Cc1c(C(=O)NCc2ccc(F)cc2)oc2ccc3c(c12)C=CC(C)(C)O3 | -1.11
30 | COc1ccc(C2C=C(c3ccc(C(C)C)cc3)Nc3ncnn32)cc1OC (stereo not drawn) | -3.23
31 | O=C(CCCn1c2ccccc2c2cnnc(O)c21)NCCc1ccccc1 | -2
32 | CCS(=O)(=O)N1CCC(C(=O)NC2CCCC(C)C2C)CC1 (stereo not drawn) | 0.514
33 | Cc1cc(C)cc(N(CC(=O)Nc2cccc(C(F)(F)F)c2)S(C)(=O)=O)c1 | -10.2
34 | CCn1c2ccccc2c2cc(CN3CCCC(C)C3)ccc21 (stereo not drawn) | -0.0494
35 | Cn1ncc2c(NCCc3ccc(Cl)cc3)ncnc21 | 2.72
36 | CCCCOc1ccc(C(=O)NCCSc2c[nH]c3ccccc23)cc1 | 0.505
37 | CC1(C)Cc2c(sc(N)c2C(=O)O)CO1 | 0.198
38 | COc1cccc(C(CC#N)OC(=O)c2ccc([N+](=O)[O-])cc2)c1 (stereo not drawn) | 0.00178
39 | O=C(Cn1ncc2c3ccccc3n(Cc3cccc(Cl)c3)c2c1=O)NCC1CCCO1 (stereo not drawn) | -1.58
40 | O=C(Cn1cccc1C(=O)c1ccccc1)NC1CCCC1 | 25
41 | Cc1cc2nc(CSc3nnc(NC(=O)COc4ccccc4C)s3)cc(=O)n2o1 | -2.83
42 | Cn1c(C(=O)NCc2ccccc2)cc2sc(Cl)cc21 | -1.37

Row | SMILES | % Inhibition @ 10 uM [%]
43 | O=C(NCCCN1CCOCC1)c1ccc2nc(-c3ccco3)c(-c3ccco3)nc2c1 | 4.7
44 | COc1ccccc1CNC(=O)c1ccc(Cn2nc(C)c(Br)c2C)o1 | -6.68
45 | COC(=O)C1=CN(Cc2cccs2)C=C(C(=O)OC)C1c1ccc2c(c1)OCO2 | -1.46
46 | CC(C)N1C(=O)CCC1C(=O)NCCc1ccc(Cl)cc1 (stereo not drawn) | -4.97
47 | Cc1ccccc1CS(=O)(=O)CCC(=O)NCc1ccc(F)cc1Cl | -0.0542
48 | O=C(CSc1nc(-c2ccco2)cc(C(F)(F)F)n1)N1CCN(Cc2ccccc2)CC1 | -6.55
49 | OC1=C2C(=Nc3nc(-c4ccccc4)nn3C2c2cccc(Br)c2)CCC1 (stereo not drawn) | -2.83
50 | Fc1ccc(N2CCN(Cc3ccc(Cl)cc3)CC2)cc1 | -0.197
51 | Cc1cc(C)cc(NC(=O)C2CCN(S(=O)(=O)c3ccc(Cl)cc3)CC2)c1 | 1.86
52 | CC(C(=O)NCc1cccnc1)n1ncn2cccc2c1=O (stereo not drawn) | 9.72
53 | COc1ccc(-c2cn(-c3ccccc3)c3[n+]2CCS3)cc1 | 1.86
54 | COc1cc(C=C2C(=O)c3ccccc3C2=O)ccc1OCc1ccccc1 | -3.44
55 | Cc1ccc(CCNC(=O)CSCc2nc(-c3sccc3C)oc2C)cc1 | -4.71
56 | CCOC(=O)c1c(C)nc(N)nc1N | -0.415
57 | Cc1cc(NC(=O)c2cccc(C(=O)Nc3cc(C)on3)n2)no1 | -10.8
58 | O=C1CC(c2ccccc2)c2c(-c3ccccc3)n[nH]c2O1 (stereo not drawn) | 4.31
59 | CCCC[C@H](NC(=O)[C@H](CS(=O)(=O)Cc1ccccc1C(F)(F)F)NC(=O)N1CCOCC1)C(=O)c1nc2ccccc2o1 | -1.83
60 | Cc1cccc(-n2cnc3cc(C(=O)NCc4ccc5c(c4)OCO5)ccc32)c1 | -3.78
61 | COc1ccc(-c2nc3scc(CCNC(=O)c4ccc(Br)cc4)n3n2)cc1 | 3.05
62 | O=c1c2ccccc2n2c(-c3c[nH]c4ccccc34)nnc2n1Cc1ccccc1 | 1.68
63 | COc1ccc(-c2cc(C(=O)NCc3ccco3)no2)cc1 | 2.01
